From PubChem BioAssay AID1645882 (National Center for Advancing Translational Sciences (NCATS), 2021)
Screen size: about 16,000 compounds; about 120 (0.75%) were called active. Not shown: some 4% with an inconclusive outcome. Calls come from the whole dose curve; as a rule, active = well fitted inhibition curve with a large enough effect; inconclusive = small, poorly fitted or top-dose-only effect; inactive = no such curve, though single readings can be large or run the other way. The list shows a part of the results. Where a SMILES comes first, the peptide text is derived from it. [ ]: non-standard residue; d: D form.

These molecules were tested against Rap guanine nucleotide exchange factor 3 (Homo sapiens) (UniProt O95398) (assay: Validation qHTS for antagonist of cAMP-regulated guanine nucleotide exchange factor 3 (EPAC1)). Settings: EPAC1 Rap1B-BODIPY-GDP exchange, fluorescence; series mostly up to 150 µM; activity change, negative = inhibition: at the top concentration.
UniProt O95398, sequence (O95398 whole entry, looked up): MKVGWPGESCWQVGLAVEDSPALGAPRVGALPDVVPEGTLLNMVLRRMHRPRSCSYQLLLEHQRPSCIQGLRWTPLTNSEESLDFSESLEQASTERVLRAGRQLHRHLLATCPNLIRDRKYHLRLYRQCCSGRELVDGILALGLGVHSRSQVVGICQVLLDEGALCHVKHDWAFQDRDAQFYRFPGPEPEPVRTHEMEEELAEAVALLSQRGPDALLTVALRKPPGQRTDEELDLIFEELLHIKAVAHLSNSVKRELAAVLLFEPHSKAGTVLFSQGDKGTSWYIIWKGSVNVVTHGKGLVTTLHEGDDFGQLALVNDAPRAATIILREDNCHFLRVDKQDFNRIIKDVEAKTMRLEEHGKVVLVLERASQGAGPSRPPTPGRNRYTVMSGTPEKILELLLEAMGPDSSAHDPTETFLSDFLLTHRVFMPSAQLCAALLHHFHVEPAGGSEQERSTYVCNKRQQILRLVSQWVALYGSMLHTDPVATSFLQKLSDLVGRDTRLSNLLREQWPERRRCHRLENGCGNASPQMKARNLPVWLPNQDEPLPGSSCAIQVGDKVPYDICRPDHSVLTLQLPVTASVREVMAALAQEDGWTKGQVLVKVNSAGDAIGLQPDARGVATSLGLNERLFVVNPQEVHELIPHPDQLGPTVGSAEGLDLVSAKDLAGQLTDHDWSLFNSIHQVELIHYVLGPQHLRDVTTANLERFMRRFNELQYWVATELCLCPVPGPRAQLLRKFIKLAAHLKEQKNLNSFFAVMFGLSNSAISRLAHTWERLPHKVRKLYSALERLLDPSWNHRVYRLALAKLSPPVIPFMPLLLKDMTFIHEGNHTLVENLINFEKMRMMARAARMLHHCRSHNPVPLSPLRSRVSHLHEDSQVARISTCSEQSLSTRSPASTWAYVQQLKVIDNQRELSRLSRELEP
Procedure, shortened: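 Nucleotide exchange followed as fluorescence loss when BODIPY-GDP leaves Rap1B (480 nm excitation, 540 nm emission), read at 5 min intervals over 30 min. Reaction: 100 nM EPAC1, 250 nM RAP1B-BODIPY-GDP, 50 uM GDP; ATA and DMSO define normalization.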
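Note: plate controls were DMSO for no effect and ATA control for full effect; nearly all actives have a fitted effect of over 75% in size.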

Activity change, negative = inhibition, inactive:
Cc1nc2cnc(OCc3ccccc3)nc2n(CCC#N)c1=O 17%
CC(N)=NCc1cccc(CN)c1
Cc1noc(C)c1C(=O)N1CCC[C@@]2(CCN(C(=O)Nc3ccccc3)C2)C1 9.69%
COc1ccc(CNc2nc(-c3c(C)noc3C)nc3ccccc23)c(OC)c1 -8.14%
COCC(=O)N1CCC2(CCCN(Cc3ccccc3OC)C2)CC1 9.54%
COc1cccc(CN2CCOc3ccc(C(O)c4cccnc4)cc3C2)c1 (stereo not drawn) 12.4%
O=c1cc[nH]c(=O)[nH]1 8.88%
CCNc1ncc2nc(-c3cn(C)c4ccccc34)c(=O)n(C)c2n1 27.1%
Cc1ccc2c(c1)CN(C(=O)CC(c1ccccc1)c1ccco1)CC(C)O2 (stereo not drawn) 10.8%
O=C(Nc1ccc([N+](=O)[O-])cc1Cl)c1cc(Cl)ccc1O
CC(C)NC(=O)N1CC2(CCN(C(=O)c3ccco3)CC2)C1 6.45%
CC(=O)c1ccccc1-c1ccc2c(c1)CC(CNC(=O)c1ccnc(Cl)c1)O2 (stereo not drawn) -1.03%
CC(=O)Nc1cc(C(=O)N2CCN(c3ccccc3)CC2C)cc2ncn(CCc3ccccn3)c12 (stereo not drawn) 10.2%
O=Cc1ccc(N2CCOCC2)cc1 14.5%
COc1ccccc1CNc1ncnc2sc(C(=O)N(C)C(C)C)c(C)c12 7.6%
Cn1cccc1C(=O)N1CCC2(CCCN(Cc3ccccc3)C2)CC1 -20.4%
CCOc1ccc(Cc2nccc3cc(OCC)c(OCC)cc23)cc1OCC -5.54% [at 75.8 µM]
COCc1ccc(CN2CCOc3c(cc(-c4ccc(SC)cc4)cc3OC)C2)o1 -17.1%
O=C(O)C(Oc1ccc2ccc(=O)oc2c1)c1ccccc1 (stereo not drawn) 12%
NCCCCC(N)C(=O)NC(Cc1ccc(O)cc1)C(=O)NC(CCCCN)C(=O)O (stereo not drawn) (H-Lys-Tyr-Lys-OH; configuration not given here) -2.41%
Fc1ccc(Nc2nc(-c3cccnc3)nc3ccccc23)cc1 9.33%
C#C[C@]1(O)CC[C@H]2[C@@H]3CCC4=Cc5oncc5C[C@]4(C)[C@H]3CC[C@@]21C 8.68%
O=C(NC[C@H](O)c1ccccc1)c1ccccc1 -5.24%
COc1ccccc1N1CCN(c2nc(CNC(=O)c3ccc(C)c(C)c3)nc3ccccc23)CC1 2.89%
COc1ccc(CNc2ncnc3ccc(-c4ccoc4)cc23)c(OC)c1 3.88%
CS(C)(=O)=O 6.26%
CC(=O)SCC(CC(=O)c1ccc(C)cc1)C(=O)O (stereo not drawn) 33.1%
N#Cc1cccc(NC(=O)N2CCCC3(CCN(C(=O)c4cnccn4)CC3)C2)c1 15.7%
CCNc1ncc2nc(C)c(=O)n(C)c2n1 15.3%
CCOC(=O)[C@@H](C)NS(=O)(=O)N(Cc1ccccc1)[C@H](C(=O)OC)C(C)C 0.502%
CS(=O)(=O)OCCCNCCCOS(C)(=O)=O 27.9%
COC(=O)N1CCC2(CCN(Cc3ccccc3OC)CC2)CC1 16.2%
COc1ccc(-c2cc(=O)c3c(OC)c(OC)c(OC)c(OC)c3o2)cc1 -2.36%
O=C(c1ccc(F)c(F)c1)N1CCOc2ccc(CN3CCN(Cc4ccccn4)CC3)cc2C1 5.86%
O=C(NCCc1ccccc1)[C@@H]1CC=C[C@@H]2CCN(Cc3ccccc3)C(=O)[C@@H]21 1.38%
OCCO[C@@H]1[C@@H](O)[C@H](O)[C@@H](CO)O[C@@H]1O 13.7%
CSCC[C@H](C=O)NC(=O)[C@H](CC(C)C)NC(=O)[C@H](CC(C)C)NC(C)=O (Ac-Leu-Leu-[dM]-aldehyde) 12.8%
COc1cc(-c2c(OC)cccc2OC)cc2c1OCCN(C(=O)CCn1nc(C)cc1C)C2 12.7%
CCCCCCCC[N+](C)(C)CCCCCCCC
Cc1c(C(=O)N2CCN(C(C)C)CC2)sc2ncnc(NCc3ccco3)c12 24.4%
COc1ccc(C(=O)N2CCC3(CC2)CCN(c2ccncc2)CC3)cc1 19%
COc1cccc(-c2cc(NCc3cccc(C)c3)ncn2)c1 -10.4%
CCCOC(=O)C1=C(C)CS[C@@H]2[C@H](NC(=O)COc3ccccc3)C(=O)N12 -10.5%
COc1ccc2ccccc2c1CN1CCc2nnc(CNC(=O)c3cccc(F)c3)n2CC1 6.59%
CC(=O)N1CCC[C@@]2(CCN(c3ncccn3)C2)C1 13.3%
CC12CC3CC(C)(C1)CC(N)(C3)C2
Cc1ccccc1-c1nc(N2CCOCC2)c2ccccc2n1 11.9%
COc1ccc(-c2nc3cnc(N4CCN(C)CC4)nc3n(Cc3ccc(F)cc3)c2=O)cc1 25.1%
Cc1cnc(CNc2ccnc(-c3cccc(NS(C)(=O)=O)c3)n2)cn1 -5.49%
COc1ccc(CCN(C)CCCOc2ccc(S(=O)(=O)c3[nH]c4ccccc4c3C(C)C)cc2)cc1OC -24.8%
CC(C)=CCc1c(O)cc2oc(C)cc(=O)c2c1O 8.94%
COc1cccc(Cn2c(=O)c(-c3cccc(C#N)c3)nc3cnc(Nc4ccccc4)nc32)c1 97.8%
O=C(Nc1ccccc1)N1CCC2(CC1)CCN(C(=O)c1cnccn1)CC2 20.5%
c1ccc2ccccc2c1 9.76%
O=C(O)c1cc2cc(F)ccc2[nH]1
CN1CCN(c2ncc3nc(-c4cccs4)c(=O)n(-c4ccccc4)c3n2)CC1 35.1%
O=c1c(-c2cccc(Cl)c2)nc2cncnc2n1Cc1ccccc1 10.5%
CC(=O)NCCNc1ncncc1-c1ccccc1C 0.413%
CCOC(=O)C[C@H]1c2ccccc2S(=O)(=O)N1Cc1ccc(Cl)cc1 1.27%
COCCn1c(=O)c(CCc2ccccc2)nc2cnc(N3CCNCC3)nc21 26.7%
CN1[C@H](CC(=O)c2ccccc2)CCC[C@H]1C[C@H](O)c1ccccc1 7.89%
O=C(c1ccc(OCCCc2cnc[nH]2)cc1)C1CC1 10.7% [at 75.8 µM]
C[C@]12CCC(=O)C=C1CCC1C2C(O)C[C@]2(C)C1CC[C@]2(O)C(=O)CO (stereo partly drawn) 8.45%
CC(=O)OC1CCC2(C)C3=C(CCC2C1(C)C)[C@@]1(C)CCC(C(C)CCC=C(C)C)[C@@]1(C)CC3 (stereo partly drawn) -0.323%
FC(F)(F)c1ccccc1-c1nccc(NCc2ccccc2)n1 1.73%
COCCn1c(=O)c(-c2cccs2)nc2cnc(Oc3ccc(OC)cc3)nc21 -1.4%
Cc1nc2cc(NC(=O)[C@@H]3C[C@@H](Sc4ccccn4)CN3Cc3ccc4c(c3)OCCO4)ccc2s1 -2.6%
CC(=O)OCC1=C(C(=O)O)N2C(=O)[C@@H](NC(=O)Cc3ccccc3)[C@H]2SC1 16.2%
